Measured values taken from PubChem BioAssay AID488969 (Vanderbilt High Throughput Screening Facility, 2010).
Whole data set: some 110,000 compounds, median “z-score” near -0.1, cut for the highest 2% near 2. The list shows a part of the results.

Target: Metabotropic glutamate receptor 8 (Rattus norvegicus) (UniProt P70579)
Assay: mGluR8 Gi/Go-coupled signaling modulation – cell-based, rat, thallium flux, HTS, primary screen (AID 488969)
Details: HEK293 rat mGluR8, GIRK (G protein-gated inwardly rectifying potassium channel) thallium flux, FluoZin2; at 10 µM; stronger effect = higher value; submaximal glutamate (EC20) added with thallium

Sequence of UniProt P70579 (P70579 whole entry, looked up): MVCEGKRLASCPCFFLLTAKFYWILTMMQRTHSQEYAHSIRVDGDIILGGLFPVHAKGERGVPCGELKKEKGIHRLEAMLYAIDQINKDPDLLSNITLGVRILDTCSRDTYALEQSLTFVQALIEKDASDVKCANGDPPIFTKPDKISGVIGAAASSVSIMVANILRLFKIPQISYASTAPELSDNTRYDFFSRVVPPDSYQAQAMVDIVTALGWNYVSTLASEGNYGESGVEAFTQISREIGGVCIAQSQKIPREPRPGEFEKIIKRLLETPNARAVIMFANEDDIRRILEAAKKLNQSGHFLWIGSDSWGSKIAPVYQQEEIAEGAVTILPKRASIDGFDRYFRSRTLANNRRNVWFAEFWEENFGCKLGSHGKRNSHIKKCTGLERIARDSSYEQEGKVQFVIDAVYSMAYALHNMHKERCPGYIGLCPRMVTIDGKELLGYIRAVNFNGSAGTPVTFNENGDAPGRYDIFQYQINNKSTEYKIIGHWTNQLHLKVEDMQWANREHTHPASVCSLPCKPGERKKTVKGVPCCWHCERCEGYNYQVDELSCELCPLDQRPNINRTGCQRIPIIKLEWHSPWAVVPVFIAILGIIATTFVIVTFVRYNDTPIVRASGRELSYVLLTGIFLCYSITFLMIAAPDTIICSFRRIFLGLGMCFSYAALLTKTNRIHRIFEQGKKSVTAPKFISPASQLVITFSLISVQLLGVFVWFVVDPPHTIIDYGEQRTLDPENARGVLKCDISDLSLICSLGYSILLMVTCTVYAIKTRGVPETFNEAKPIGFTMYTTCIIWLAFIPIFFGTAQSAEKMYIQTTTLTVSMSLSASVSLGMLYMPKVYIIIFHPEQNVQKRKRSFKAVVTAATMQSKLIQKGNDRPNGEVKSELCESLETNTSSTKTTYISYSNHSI

Row | Compound | z-score
1 | Cc1cccc(NC(=O)NNC(=O)c2nn(C)cc2Br)c1 | -0.174
2 | NC(=O)CSc1nnc(CNc2ccc(F)cc2)n1CC1CCCO1 (stereo unspecified) | -0.378
3 | CCN1CCN(CC(O)COc2ccc3c(c2)CCC3)CC1 (stereo unspecified) | -0.0762
4 | CCOC(=O)C1CCN(c2nc3ccccc3nc2C(C#N)C(=O)NCCc2ccccc2)CC1 (stereo unspecified) | -0.159
5 | CCCN(N=Nc1cccc([N+](=O)[O-])c1)c1cccc([N+](=O)[O-])c1 | 0.00417
6 | O=C1C2ON(c3ccc(Cl)cc3)C(c3ccco3)C2C(=O)N1c1ccccc1 (stereo unspecified) | -0.114
7 | Cc1cccc(-n2c(-c3csc(C)c3C)n[nH]c2=S)c1 | 0.00757
8 | O=C1NC2(CCCCC2)Oc2ccccc21 | 1.88
9 | Cc1sc(NC(=O)c2ccccc2)c(C(=O)NC(C)C)c1C | 0.145
10 | O=C(Nc1ccccc1C(=O)N/N=C/c1ccco1)c1ccccc1Cl | 0.924
11 | O=C(O)COc1ccc2occ(C(=O)c3ccccc3)c2c1 | -0.673
12 | COC(=O)NNC(=S)NCc1ccccc1 | -0.238
13 | O=C(NCCCN1CCCC1)c1cccc(N2CCCC2=O)c1 | 0.317
14 | CCNC(=O)C(Sc1ccccc1)c1ccccc1 (stereo unspecified) | 0.00762
15 | Cc1ccc(NC(=O)C(=O)NNC(=O)c2ccccc2C)cc1Cl | -0.171
16 | COc1ccccc1N(C(C)=O)c1nc(C)cc(C)c1C#N | 0.0747
17 | O=c1[nH]c(-c2ccco2)nc2sc3c(c12)CCCC3 | -0.273
18 | O=c1cc(N2CCOCC2)[nH]c(=O)n1-c1ccc(Br)cc1 | 0.135
19 | CCN(CC)S(=O)(=O)c1ccc2c(c1)nc(CCC(=O)OCc1c(C)noc1C)n2C | -0.209
20 | O=C(CSC1=Nc2ccccc2C2=NC(c3ccccc3)C(=O)N12)NC1CCCCC1 (stereo unspecified) | -0.816
21 | CCOC(=O)C1CCCN(C(=O)c2sc3nc(C)nc(N4CCOCC4)c3c2C)C1 (stereo unspecified) | -0.222
22 | Cc1[nH]c(=O)c(C#N)c2c1CCCC2 | -0.463
23 | COC(=O)c1c(NC(=O)C2C3CCC(O3)C2C(=O)O)sc2c1CCCCCC2 (stereo unspecified) | -0.215
24 | CCn1cnc2cc(NCc3nc4ccccc4n3C)ccc21 | -0.256

Row | Compound | z-score
25 | CCC1CCCCN1C(=O)CSc1nnc(CNC(=O)COc2ccc(Cl)cc2)o1 (stereo unspecified) | -0.269
26 | CN1CCN(CCCNC(=O)c2cn(C)c3ccc(S(=O)(=O)N(C)C)cc3c2=O)CC1 | -0.0965
27 | COCc1cc(C)n(CC(=O)N/N=C/c2ccc(-c3ccc(Cl)c(C(=O)O)c3)o2)c(=O)c1C#N | 0.0238
28 | O=C(CSc1ccc2nnc(-c3ccncc3)n2n1)Nc1ccc2c(c1)OCCO2 | -0.454
29 | CCCCc1nc(NCCNC(=O)c2ccccc2)c(C#N)c2c1CSC(C)(C)C2 | -0.352
30 | C=CCn1nc([N+](=O)[O-])nc1Sc1cccc2cccnc12 | 1.44
31 | O=C(COC(=O)CNC(=O)c1ccc(Cl)cc1)Nc1ncc(C(F)(F)F)cc1Cl | -0.342
32 | COc1cc(NC(=O)COc2ccc(Cl)cc2)ccc1-c1cc2ccccc2oc1=O | 1.24
33 | O=C(COC(=O)c1ccccc1O)Nc1cccnc1Cl | -0.873
34 | CCCc1cc(C(=O)NNC(=S)NCc2ccccc2)cs1 | -0.108
35 | CCOc1cc(OCC)cc(C(=O)NC(=S)Nc2cccc(C(F)(F)F)c2)c1 | 1.54
36 | CCOc1ccccc1NC(=O)C(Sc1nnc2ccccn12)c1ccccc1 (stereo unspecified) | -0.182
37 | O=C(CSc1ccccn1)Nc1nc2ccccc2s1 | 0.156
38 | CCOC(=O)C1CCN(c2c(NCc3ccc(C(=O)NC(C)CC)cc3)c(=O)c2=O)CC1 (stereo unspecified) | -0.414
39 | CS(=O)(=O)Nc1ccc(OCc2ccccc2)cc1 | -0.243
40 | CC(=O)NC(C)C(=O)OCc1ccc(Cl)cc1Cl (stereo unspecified) | 1.07
41 | COC(=O)C(=O)Nc1nnc(COc2ccccc2)s1 | -0.887
42 | CCCCC(=O)Nc1ccc(C(=O)Nc2ccc(S(=O)(=O)Nc3ccc(C)cc3)cc2)cc1 | -0.117
43 | O=C(Nc1cccc2ccccc12)c1ccccc1NS(=O)(=O)c1cccc2cccnc12 | -0.0553
44 | CC1(C)N([O-])C2=C(c3ccccc3C2=O)[N+](=O)C1(C)C | -0.167
45 | O=C(CN1C(=O)NC(Cc2ccccc2)(Cc2ccccc2)C1=O)NCC1CCCCC1 | 0.00942
46 | Clc1ccc(CCNc2nc3ccccc3s2)cc1 | -0.282
47 | COc1cc(C(=S)N2CCCC2)cc(Cl)c1O | 2.62
48 | Cc1c(NC(=S)/C=C2\N(C)c3ccccc3C2(C)C)c(=O)n(-c2ccccc2)n1C | -0.43

Row | Compound | z-score
49 | CCCSc1nc(C)c(C(C)=O)cc1C#N | -0.196
50 | O=C(NCc1ccco1)c1nc2c(nnn2Cc2ccccc2Cl)c(=O)[nH]1 | -1.14
51 | CC1CCN(S(=O)(=O)c2ccc(C(=O)NCc3ccc4c(c3)OCO4)cc2)CC1 | -0.39
52 | CN(C)c1ccc(Nc2c3c4c(cccc4n(C)c2=O)C(=O)c2ccccc2-3)cc1 | 0.123
53 | O=C(OCc1nnc(-c2ccc(Cl)cc2)o1)c1ccncc1 | -0.619
54 | CC(C)(C)n1ncc2c(=O)n(CC(=O)Nc3ccc4c(c3)OCO4)cnc21 | 0.52
55 | O=C(O)c1cccc(S(=O)(=O)N2Cc3ccccc3C2)c1 | -0.202
56 | Cc1ccccc1NC(=O)Nc1ccccc1Br | -0.375
57 | COCCCNC(=O)C(F)(F)C(F)(F)C(=O)NCCCOC | -0.233
58 | CCOC(=O)c1c(NC(=O)Cn2nc(C(F)(F)F)cc2C)sc2c1CCC2 | -0.122
59 | CCOC(=O)C(C)Oc1ccc2c(C)cc(=O)oc2c1C(C)=O (stereo unspecified) | -0.319
60 | COc1ccc(S(=O)(=O)NCCSC(C)(C)C)cc1Cl | 0.154
61 | Cc1ccc(N(C(=O)C(F)(F)F)C(C(=O)NC2CCCCC2)c2cccs2)cc1C (stereo unspecified) | -2.35
62 | O=C(Cc1ccc(Br)cc1)N1CCN(c2ccccc2)CC1 | -0.169
63 | c1ccc(-c2csc(N3CCc4ccccc4C3)n2)cc1 | 0.2
64 | Oc1ccc(N=Nc2c(O)ccc3ccccc23)cc1 | -0.0552
65 | CCOC(=O)C(C)(C)N(Cc1ccc(C)cc1)S(=O)(=O)c1ccc(Cl)c([N+](=O)[O-])c1 | -0.285
66 | COC(=O)C(C)Sc1nc2c(c(-c3ccc(OC)cc3)c1C#N)-c1ccccc1C2=O (stereo unspecified) | -0.206
67 | COc1cccc(/C=N/n2c(=S)n(C)c3cc(C)c(C)cc32)c1OC | 0.276
68 | CC(C)(C)C(=O)Nc1nc(=S)ss1 | 1.95
69 | O=C(C1CCC1)N1CCc2cc(S(=O)(=O)Nc3ccc4c(c3)OCCO4)ccc21 | -0.0481
70 | COC(=O)C(CC(C(=O)OC)C(=O)OC)C(=O)OC | -0.382
71 | CCOC(=O)C1CCN(C(=O)COc2ccc(N(C)S(=O)(=O)c3cccs3)cc2)CC1 | -1.31
